Where “and” joins values, the source holds several entries; their conditions need not be identical. Equal entries are not always repeated.
Legend:
[1] = target: T1, Mouse BMP1-3: 126-707 (mouse, UniProt P98063 126-707); test: cell-based or functional assay
T1 sequence (looked up): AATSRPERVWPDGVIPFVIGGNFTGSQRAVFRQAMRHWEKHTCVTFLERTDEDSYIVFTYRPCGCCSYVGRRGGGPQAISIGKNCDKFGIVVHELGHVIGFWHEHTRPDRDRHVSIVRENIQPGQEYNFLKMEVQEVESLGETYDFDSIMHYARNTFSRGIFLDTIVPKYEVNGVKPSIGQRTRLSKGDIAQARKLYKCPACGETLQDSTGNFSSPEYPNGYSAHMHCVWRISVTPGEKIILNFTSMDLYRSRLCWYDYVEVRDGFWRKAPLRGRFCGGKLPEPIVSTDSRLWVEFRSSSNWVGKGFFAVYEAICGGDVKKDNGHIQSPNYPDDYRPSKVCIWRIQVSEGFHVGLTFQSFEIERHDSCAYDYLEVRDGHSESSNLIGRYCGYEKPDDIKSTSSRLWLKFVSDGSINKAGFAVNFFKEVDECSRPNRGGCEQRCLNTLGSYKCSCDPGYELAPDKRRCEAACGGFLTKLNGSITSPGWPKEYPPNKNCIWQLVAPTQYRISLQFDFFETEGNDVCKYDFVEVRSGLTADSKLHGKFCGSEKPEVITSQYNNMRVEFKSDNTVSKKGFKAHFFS

[2] = target: T2, Human BMP1 CD+CUB1 truncated antigen (human, UniProt P13497 121-434, limits assumed); test: SPR, mAb captured on protein A, HBS-EP
T2 construct: domain: CD+CUB1
T2 sequence (looked up): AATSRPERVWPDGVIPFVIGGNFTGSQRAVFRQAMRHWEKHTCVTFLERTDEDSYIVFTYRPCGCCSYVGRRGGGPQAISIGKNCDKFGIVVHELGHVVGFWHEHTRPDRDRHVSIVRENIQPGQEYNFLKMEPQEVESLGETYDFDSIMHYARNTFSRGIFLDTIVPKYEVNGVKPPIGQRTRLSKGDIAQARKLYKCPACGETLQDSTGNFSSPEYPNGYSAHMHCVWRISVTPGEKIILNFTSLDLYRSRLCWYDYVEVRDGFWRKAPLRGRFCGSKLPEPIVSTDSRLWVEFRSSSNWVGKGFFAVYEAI
Method: The 16 lead panel antibodies expressed in HEK cells were evaluated for binding to a truncated version of human BMP containing the catalytic domain and truncated domain (Human BMP1 CD+CUB1 truncated antigen) by SPR using BIACORE T200. HBS-EP+ buffer was used and the experiment run at 25° C. Protein A was immobilised to a CM5 sensor chip via amine coupling. The lead panel antibodies were captured onto protein A surface. Human BMP1 CD+CUB1 was then passed over the captured antibodies at various concentrations.

[3] = target: T3, Human TLL2 CD+CUB1 truncated antigen (human, UniProt Q9Y6L7 150-463, limits assumed); test: SPR, mAb captured on protein A/G, HBS-EP
T3 construct: domain: CD+CUB1
T3 sequence (looked up): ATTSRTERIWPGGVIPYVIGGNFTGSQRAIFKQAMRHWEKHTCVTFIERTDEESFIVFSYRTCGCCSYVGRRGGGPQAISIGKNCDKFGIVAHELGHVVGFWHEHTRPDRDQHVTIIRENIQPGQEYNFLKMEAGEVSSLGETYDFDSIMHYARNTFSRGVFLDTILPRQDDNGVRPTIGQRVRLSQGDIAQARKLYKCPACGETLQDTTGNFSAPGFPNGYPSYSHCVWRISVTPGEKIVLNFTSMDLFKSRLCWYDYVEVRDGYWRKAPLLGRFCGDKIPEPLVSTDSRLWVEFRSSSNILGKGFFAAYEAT
Method: (§1) Both antibodies 13Y039-4B06-4334 and 13Y039-3E07-2944 and the reverse chimeric antibodies were evaluated for binding to human TLL2 CD+CUB1 and mouse BMP1 CD+CUB1 truncated antigens by SPR on a BIACORE T200. Protein A/G was immobilised to a CM5 sensor chip via amine coupling and the antibodies were captured to the protein A/G surface. The antigens were passed over the captured antibody at various concentrations. The measured affinities to human TLL2 CD+CUB1 are shown in Table 2 and the measured affinities to mouse BMP1 CD+CUB1 are shown in Table 3.

[4] = target: T4, Mouse BMP1 CD+CUB1 truncated antigen (mouse, UniProt P98063 126-439, limits assumed); test: SPR, mAb captured on protein A/G, HBS-EP
T4 construct: domain: CD+CUB1
T4 sequence (looked up): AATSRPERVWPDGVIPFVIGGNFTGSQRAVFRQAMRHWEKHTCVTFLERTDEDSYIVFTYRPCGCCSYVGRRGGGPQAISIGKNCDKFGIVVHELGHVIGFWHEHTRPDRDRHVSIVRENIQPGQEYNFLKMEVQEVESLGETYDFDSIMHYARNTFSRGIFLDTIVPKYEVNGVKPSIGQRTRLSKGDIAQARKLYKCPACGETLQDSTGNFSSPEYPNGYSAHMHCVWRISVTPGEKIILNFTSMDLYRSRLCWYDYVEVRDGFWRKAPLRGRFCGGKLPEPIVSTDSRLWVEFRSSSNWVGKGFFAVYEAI
Method: as §1

B1: 13Y039-3E07-2944 (antibody, human IgG1, kappa)
heavy: QVQLQQWGAGLLKPSETLSLTCAVYGGSFFGDYWSWIRQPPGKGLEWIGEIDWSGATNYNPSLKSRVTISVDTSKNQFSLKLSSVTAADTAVYYCARGGSKELSFDIWGQGTMVTVSS[gap - human IgG1 constant region with L235A G237A (EU numbers)]
light: DIQMTQSPSSLSASVGDRVTITCQASQDIANYLNWYQQKPGKAPKLLIYDASNLETGVPSRFSGSGSGTDFTFTISSLQPEDIATYYCQQADTLPFTFGGGTKVEIKRTVAAPSVFIFPPSDEQLKSGTASVVCLLNNFYPREAKVQWKVDNALQSGNSQESVTEQDSKDSTYSLSSTLTLSKADYEKHKVYACEVTHQGLSSPVTKSFNRGEC
notes: Fully human IgG1 LAGA, kappa; HEK expressed; also called HEK-expressed 13Y039-3E07-2944
Question: Which “IC50 (read off the curve)” value [1] does the source give for B1 here?
Answer: ~0.05 nM

Question: What about the Kd [2] of the same binder?
Answer: 4.3 nM and 4.25 nM and 3.66 nM

Question: Does B1 bind [3]?
Answer: no binding

Question: And the Kd [4]?
Answer: 6.1 nM and 5.23 nM
